According to PubChem BioAssay AID1476 (National Center for Advancing Translational Sciences (NCATS), 2009):
About 4,500 (2.2%) of roughly 200,000 compounds were called active. The inconclusive results got no clear call from the source; some entries with a clear call stand among them for comparison. Calls come from the whole dose curve; as a rule, active = well fitted inhibition curve with a large enough effect; inconclusive = small, poorly fitted or top-dose-only effect, or effect the other way; inactive = flat fitted curve, though single readings scatter. Where the call is inconclusive, the potency comes from a doubtful curve fit. More than one record can exist for a structure, and the calls need not agree.
Note: nearly all actives have a fitted effect of over 40% in size.
Potency is the fitted concentration of half-maximal effect; tags give direction and shape of the fitted curve.
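Throughout, for max response, negative = inhibition: plate controls were enzyme without inhibitor for no effect and buffer without enzyme for full effect.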

The compounds below were run against Cruzipain (Trypanosoma cruzi) (UniProt P25779) (assay: qHTS Assay for Promiscuous and Specific Inhibitors of Cruzain (without detergent)). Conditions: purified cruzain, Z-FR-AMC fluorescence, no detergent.
UniProt P25779, sequence (P25779 whole entry, looked up): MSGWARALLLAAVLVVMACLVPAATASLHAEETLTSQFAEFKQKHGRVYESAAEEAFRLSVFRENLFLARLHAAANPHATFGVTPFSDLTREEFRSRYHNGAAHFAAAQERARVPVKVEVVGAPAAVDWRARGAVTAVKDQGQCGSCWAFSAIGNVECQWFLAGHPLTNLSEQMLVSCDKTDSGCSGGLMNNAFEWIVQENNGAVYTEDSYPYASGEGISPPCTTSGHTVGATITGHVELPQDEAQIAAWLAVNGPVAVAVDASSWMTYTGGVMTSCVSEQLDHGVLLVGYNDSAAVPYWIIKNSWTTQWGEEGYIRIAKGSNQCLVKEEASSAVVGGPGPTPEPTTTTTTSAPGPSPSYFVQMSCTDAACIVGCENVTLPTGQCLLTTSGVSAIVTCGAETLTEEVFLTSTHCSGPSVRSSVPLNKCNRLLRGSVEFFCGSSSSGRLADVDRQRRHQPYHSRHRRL
Summary of the method: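 Detergent-free condition (0.00005% Triton X-100) in acetate buffer pH 5.5 with DTT. 1.5 nM enzyme and compound were pre-mixed 15 min, then 2 uM Z-FR-AMC substrate added; reaction progress from fluorescence change between first and third reads (60 s).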
With `Cc1nc2c(C(=O)NCCC(C)C)c[nH]n2c(=O)c1Cc1ccccc1F` the Potency was inconclusive: 39.8 µM [activator, single point].
`CC(Cc1ccc(O)c(O)c1)(NN)C(=O)O` (configuration not stated) was tested, and the max response, negative = inhibition was inactive: -3.42%.
In the case of `O=C(NNC(=O)c1ccc(-c2ccccc2)cc1)c1ccccc1`, the Potency is reported as inconclusive: 25.1 µM [inhibitor, single point].
With `COc1ccccc1N1CCN(C(c2cc3cc(C)ccc3[nH]c2=O)c2nnnn2C2CCCC2)CC1` (configuration not stated) the Potency was inconclusive: 39.8 µM [activator, single point].
With `O=C(Nc1cccc(S(=O)(=O)NCc2ccco2)c1)c1cc(-c2ccc(F)cc2)nc2ccccc12` the Potency was inconclusive: 39.8 µM [inhibitor, single point].
`CCCn1c(=O)[nH]c2nc(-c3ccc(S(=O)(=O)O)cc3)[nH]c2c1=O` was tested, and the Potency was inconclusive: 25.1 µM [inhibitor, partial curve, poor fit].
In the case of `CCn1c2ccccc2c2nnc(N3CCN(c4cccc(Cl)c4)CC3)nc21`, the Potency is reported as inconclusive: 39.8 µM [activator, single point].
For `CCc1ccc(-c2cc(C(=O)Nc3ccc(S(=O)(=O)NC(C)=O)cc3)c3ccccc3n2)cc1`, the Potency was inconclusive: 25.1 µM [activator, partial curve].
`Cn1c(CCNC(=O)c2ccc(F)cc2)nc2ccccc21` was tested, and the Potency was active: 2.51 µM.
For `Cc1ccc(-n2nnnc2SCC(=O)c2cc(C)n(-c3cc(C)on3)c2C)c(C)c1`, the Potency was inconclusive: 20 µM [inhibitor, partial curve].
`Cc1cccc2cc(C(c3nnnn3C(C)(C)C)N3CCN(C(=O)c4ccco4)CC3)c(=O)[nH]c12` (configuration not stated) was tested, and the Potency was inconclusive: 25.1 µM [activator, single point].
For `O=C(CN(c1cc(C(F)(F)F)ccc1Cl)S(=O)(=O)c1ccccc1)NCCc1ccccc1`, the max response, negative = inhibition was inactive: 2.16%.
With `Cc1cc(C)cc(OCC(=O)Nc2ccc3c(c2)C(=O)c2ccccc2C3=O)c1` the Potency was active: 25.1 µM.
With `COc1ccc(NC(=O)C2CCC(C(C)(C)C)CC2)cc1S(=O)(=O)N1CCCCC1` (configuration not stated) the Potency was inconclusive: 20 µM [activator, single point].
In the case of `Cc1nn(-c2ccccc2)c2c1C(c1ccc(Cl)cc1)N(c1ccccc1)C(=O)N2` (configuration not stated), the max response, negative = inhibition is reported as inactive: -9.95%.
In the case of `CCOC(=O)Cc1nnn(CC(=O)OCC)n1`, the max response, negative = inhibition is reported as inconclusive: -33.2% [inhibitor].
In the case of `CCN(CC)S(=O)(=O)c1cccc(NC(=S)NC(=O)/C=C/c2ccc(S(=O)(=O)N3CCOCC3)cc2)c1`, the Potency is reported as inconclusive: 39.8 µM [inhibitor, single point].
In the case of `Cc1sc(-n2cccc2)c(C(C)NC(=O)Nc2ccccc2Cl)c1C` (configuration not stated), the Potency is reported as inconclusive: 39.8 µM [inhibitor, single point].
`COc1ccc(CNC(=O)OCCN2CCN(S(=O)(=O)c3ccc(C)cc3)CCC2=O)cc1` was tested, and the Potency was inconclusive: 25.1 µM [activator, single point].
`Cc1cc(C)c(Cn2c3ccccc3c3cnn(CC(=O)NCc4ccc(Cl)cc4)c(=O)c32)c(C)c1` was tested, and the max response, negative = inhibition was inactive: 8.91%.
`Cc1cccc(N2CC(C(=O)Nc3nnc(SCC(=O)Nc4nccs4)s3)CC2=O)c1` (configuration not stated) was tested, and the Potency was active: 6.31 µM.
For `NNC(=O)c1ccc(COc2cccc3ccccc23)cc1`, the Potency was inconclusive: 39.8 µM [activator, single point].
With `COc1ccc(NC(=O)COc2ccc(S(=O)(=O)NC3CCCCC3)cc2)c(OC)c1` the max response, negative = inhibition was inactive: 0.733%.
With `c1ccc(CN2c3ccccc3-c3nc4ccccc4n3C2c2ccccn2)cc1` (configuration not stated) the Potency was inconclusive: 31.6 µM [inhibitor, single point].
`COc1ccc(-c2nc3nc(C)cc(Nc4cccc(C(F)(F)F)c4)n3n2)cc1` was tested, and the Potency was active: 25.1 µM.
With `COC(=O)C1=C(C(=O)OC)SC(=C2C(=S)C(C)(C)N(C(=O)CC(C)C)c3ccccc32)S1` the Potency was inconclusive: 20 µM [inhibitor, partial curve].
In the case of `COC(=O)c1scc(-c2ccc(C)cc2)c1S(=O)(=O)Nc1cccc(Cl)c1C`, the Potency is reported as inconclusive: 31.6 µM [inhibitor, single point].
In the case of `Cc1n[nH]c(C)c1CCc1nc2c3ccccc3nc(SCC(=O)Nc3ccc(F)cc3)n2n1`, the Potency is reported as inconclusive: 15.8 µM [activator, partial curve].
For `CC(C)(O)[C@@H]1CCC[N+]2(C)CCCC[C@H]12` (some centres not stated), the max response, negative = inhibition was inactive: -8.59%.
`COc1cc2c(cc1NC(=S)NC(=O)c1c(OC)cccc1OC)oc1ccccc12` was tested, and the Potency was active: 6.31 µM.
For `Cc1ccc(NC(=O)c2cnc(N3CCCCC3)c3ccccc23)cc1Cl`, the Potency was inconclusive: 31.6 µM [inhibitor, single point].
In the case of `Cc1ccc(-c2nnn(CC(=O)N(CC3CCCO3)C(C(=O)NCC3CCCO3)c3ccc(F)cc3)n2)o1` (configuration not stated), the Potency is reported as inconclusive: 39.8 µM [activator, single point].
In the case of `O=c1c2ccccc2[nH]c(=S)n1CCCN1CCN(C2CCCCC2)CC1`, the Potency is reported as inconclusive: 39.8 µM [inhibitor, single point].
In the case of `COC(=O)[C@@]1(Cc2ccc(OC)cc2)[C@H]2c3cc(C(=O)N(C)C)n(CCO)c3C[C@H]2CN1C(=O)c1ccccc1`, the Potency is reported as inconclusive: 31.6 µM [activator, single point].
`Cc1ccc(S(=O)(=O)N2CCCC2C(=O)n2nc(C)cc2C)cc1` (configuration not stated) was tested, and the max response, negative = inhibition was inactive: 4.22%.
With `COc1ccc(-c2nc3scc(CCNS(=O)(=O)c4ccc(F)c(C(F)(F)F)c4)n3n2)cc1OC` the Potency was inconclusive: 39.8 µM [activator, single point].
For `CCCC(=O)C1=C(c2ccc(C)cc2)N(C(=O)CCC)n2cnnc2S1`, the max response, negative = inhibition was inactive: 7.28%.
For `O=C(c1cnc2n(c1=O)CCS2)N1CCN(c2ccc(Cl)c(Cl)c2)CC1`, the Potency was inconclusive: 39.8 µM [activator, single point].
For `Cc1oc(-c2ccc(C(=O)Nc3cccc(C(F)(F)F)c3)cc2)nc1CSc1ccccc1`, the Potency was inconclusive: 31.6 µM [inhibitor, single point].
In the case of `CCOc1cc(N2CCOCC2)c(OCC)cc1NC(=O)COC(=O)[C@H](Cc1c[nH]c2ccccc12)NC(C)=O`, the Potency is reported as inconclusive: 25.1 µM [activator, partial curve].
For `CCOC(=O)c1sc(NC(=O)C(C)Sc2nc(-c3ccccc3)cc(C(F)(F)F)n2)c(C(=O)OC)c1C` (configuration not stated), the max response, negative = inhibition was inactive: 7.89%.
`C/C(=N/NC1=NCCN1)c1cn(C2=NCCN2)nc1C` was tested, and the max response, negative = inhibition was inactive: 13.4%.
In the case of `Cc1c(C)n(Cc2ccccc2)c2ccc(C(=O)NCc3ccc(OC(C)C)cc3)cc12`, the Potency is reported as active: 25.1 µM.
`CCN(CC)CCCNC(=O)C1CCN(S(C)(=O)=O)CC1` was tested, and the max response, negative = inhibition was inactive: -2.83%.
In the case of `CCOC(=O)C1CCN(S(=O)(=O)c2cc(Br)cc3c2N(C(C)=O)C(C)C3)CC1` (configuration not stated), the Potency is reported as inconclusive: 31.6 µM [activator, single point].
With `O=C(NCc1ccc2[nH]c3c(c2c1)CCCC3)c1ccc(S(=O)(=O)N2CCCC2)cc1` the Potency was inconclusive: 25.1 µM [inhibitor, single point].
`COc1ccc(/C=c2\sc3nc(-c4ccccc4)c(-c4ccccc4)n3c2=O)cc1OC` was tested, and the Potency was inconclusive: 15.8 µM [inhibitor, partial curve].
In the case of `CCCCCn1c(CCCNC(=O)c2cccc(C)c2)nc2ccccc21`, the Potency is reported as inconclusive: 31.6 µM [activator, single point].
With `COc1ccc(C2=NO[C@@H]3[C@@H]4C[C@@H]([C@H]5C(=O)N(c6ccc7c(c6)OCO7)C(=O)[C@@H]45)[C@H]23)cc1OC` the Potency was inconclusive: 39.8 µM [activator, single point].
In the case of `Cc1[nH]c2ccc(-c3nnc(SCC(=O)c4ccc(F)cc4)o3)cc2c1C`, the Potency is reported as inconclusive: 3.16 µM [activator, single point].
With `COCCn1nnnc1C(c1cc2cccc(C)c2[nH]c1=O)N1CCN(c2ccccc2F)CC1` (configuration not stated) the Potency was inconclusive: 25.1 µM [activator, single point].
With `CCN(CC)S(=O)(=O)c1ccc(N2CCCCC2)c(NC(=O)/C=C/c2cc(OC)c(OC)c(OC)c2)c1` the Potency was inconclusive: 39.8 µM [activator, single point].
For `COc1ccc(NC(=O)c2ccc(NC(=O)CCS(=O)(=O)c3cccs3)cc2)cc1OC`, the Potency was inconclusive: 39.8 µM [activator, single point].
`N=c1oc2c3c4c(cc2cc1C(=O)Nc1ccccc1)CCCN4CCC3` was tested, and the Potency was inconclusive: 31.6 µM [inhibitor, single point].
For `C/C(=C\c1ccc(C(=O)O)cc1)c1ccc2c(c1)C(C)(C)CCC2(C)C`, the Potency was active: 6.31 µM.
For `Cc1cc(C)nc(NC(=NCCc2c[nH]c3ccccc23)NC(=O)Nc2cccc([N+](=O)[O-])c2)n1`, the Potency was active: 10 µM.
`CSC[C@@H]1NC(=S)N(c2ccc(C)cc2)C1=O` was tested, and the Potency was active: 12.6 µM.
For `CCOC(=O)c1cc(CC)sc1NC(=O)C(c1ccccc1)c1ccccc1`, the Potency was inconclusive: 39.8 µM [inhibitor, single point].
In the case of `COC(=O)c1ccc(C(/C=C/[C@@H](C)C(=O)NCc2cc(C)n(C)n2)NC(=O)OCc2ccccc2)cc1` (some centres not stated), the Potency is reported as inconclusive: 39.8 µM [activator, single point].
In the case of `CCc1ccc(N2NC(=O)/C(=C/C=C/c3ccco3)C2=O)cc1`, the Potency is reported as inconclusive: 39.8 µM [inhibitor, single point].
For `CCSC1=NSC2=NC(=O)/C(=C\c3coc4ccccc4c3=O)C(=N)N12`, the Potency was inconclusive: 39.8 µM [activator, single point].
With `Cc1ccc(-n2nc3c(c2NC(=O)c2c(-c4ccccc4Cl)noc2C)CSC3)cc1` the Potency was inconclusive: 3.98 µM [inhibitor, full curve, poor fit].
